Measurements from paper PMC7054675.
These are yes or no findings as the source states them, for the method shown. Binding seen in cells or lysates may run through a third protein. Some binding calls cover weakened binding; strength is not graded here. For some of these results: Tags and fused reporters may be left off the sequences shown. Values belong to the binder of their own block, whether it stands above or below them.

By UniProt entry, the sequences of proteins in these tests, tags left out.
UniProt Q96BY7: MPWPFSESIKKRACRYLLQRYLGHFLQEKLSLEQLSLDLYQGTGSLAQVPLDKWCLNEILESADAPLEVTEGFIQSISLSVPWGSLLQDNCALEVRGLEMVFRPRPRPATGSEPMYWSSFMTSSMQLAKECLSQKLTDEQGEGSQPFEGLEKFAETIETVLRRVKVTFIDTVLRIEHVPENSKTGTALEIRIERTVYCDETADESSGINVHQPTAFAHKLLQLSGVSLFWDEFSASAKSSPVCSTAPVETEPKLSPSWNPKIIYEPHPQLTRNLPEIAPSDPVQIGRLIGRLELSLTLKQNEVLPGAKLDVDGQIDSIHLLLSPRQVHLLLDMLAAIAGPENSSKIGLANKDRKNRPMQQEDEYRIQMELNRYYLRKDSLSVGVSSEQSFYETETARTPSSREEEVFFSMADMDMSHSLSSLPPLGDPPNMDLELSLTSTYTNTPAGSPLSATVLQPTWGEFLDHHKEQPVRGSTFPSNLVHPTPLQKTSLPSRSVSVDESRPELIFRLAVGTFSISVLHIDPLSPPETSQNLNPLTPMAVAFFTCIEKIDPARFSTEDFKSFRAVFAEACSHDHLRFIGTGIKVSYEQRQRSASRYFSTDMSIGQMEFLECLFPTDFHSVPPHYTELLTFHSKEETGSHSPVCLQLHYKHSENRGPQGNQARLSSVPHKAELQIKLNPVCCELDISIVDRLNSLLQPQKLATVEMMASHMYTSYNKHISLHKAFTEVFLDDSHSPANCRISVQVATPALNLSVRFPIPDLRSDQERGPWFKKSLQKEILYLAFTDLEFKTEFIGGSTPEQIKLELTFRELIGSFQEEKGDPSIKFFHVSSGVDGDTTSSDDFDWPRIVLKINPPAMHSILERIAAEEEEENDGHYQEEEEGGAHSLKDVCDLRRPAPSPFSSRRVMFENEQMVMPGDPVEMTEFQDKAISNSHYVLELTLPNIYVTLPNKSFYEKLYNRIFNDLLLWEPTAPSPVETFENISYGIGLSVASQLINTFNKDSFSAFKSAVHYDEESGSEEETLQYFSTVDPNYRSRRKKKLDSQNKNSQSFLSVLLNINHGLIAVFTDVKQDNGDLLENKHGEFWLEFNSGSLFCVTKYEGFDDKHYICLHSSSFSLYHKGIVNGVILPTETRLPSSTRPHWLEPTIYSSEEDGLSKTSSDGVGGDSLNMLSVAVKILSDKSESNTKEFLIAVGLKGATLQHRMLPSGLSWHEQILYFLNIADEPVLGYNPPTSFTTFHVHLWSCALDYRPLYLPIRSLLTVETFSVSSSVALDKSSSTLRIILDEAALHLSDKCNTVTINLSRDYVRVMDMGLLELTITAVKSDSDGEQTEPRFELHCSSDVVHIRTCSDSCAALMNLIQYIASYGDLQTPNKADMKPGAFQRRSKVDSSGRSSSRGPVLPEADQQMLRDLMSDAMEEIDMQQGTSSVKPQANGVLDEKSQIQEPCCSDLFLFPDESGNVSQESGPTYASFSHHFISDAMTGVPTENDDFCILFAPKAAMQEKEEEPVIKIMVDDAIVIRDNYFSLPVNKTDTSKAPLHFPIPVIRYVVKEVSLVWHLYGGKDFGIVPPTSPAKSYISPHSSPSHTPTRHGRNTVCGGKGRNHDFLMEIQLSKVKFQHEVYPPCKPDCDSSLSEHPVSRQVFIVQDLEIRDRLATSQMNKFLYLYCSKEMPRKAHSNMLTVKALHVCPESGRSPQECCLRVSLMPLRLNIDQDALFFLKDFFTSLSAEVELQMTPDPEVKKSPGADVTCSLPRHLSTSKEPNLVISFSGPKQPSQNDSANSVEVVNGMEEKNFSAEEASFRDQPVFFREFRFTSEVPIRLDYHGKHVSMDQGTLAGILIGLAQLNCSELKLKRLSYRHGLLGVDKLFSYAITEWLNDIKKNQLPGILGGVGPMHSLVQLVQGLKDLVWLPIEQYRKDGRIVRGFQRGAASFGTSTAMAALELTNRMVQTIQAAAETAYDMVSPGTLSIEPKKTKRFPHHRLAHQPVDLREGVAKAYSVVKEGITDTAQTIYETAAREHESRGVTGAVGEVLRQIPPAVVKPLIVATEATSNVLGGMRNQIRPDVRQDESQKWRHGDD

What was measured:
[1] = target: HA‐tagged ATG2A‐WT (human) (UniProt Q2TAZ0); experiment: co-IP; U2OS ATG2A/B DKO cells stably expressing HA-ATG2A WT, mLIR or mYFS, transfected with GFP-GABARAP, complete medium or starved 2 h (EBSS); anti-HA beads; blots for WIPI4 and GFP
[2] = target: HA‐tagged ATG2A‐mYFS (YFS/AAA) (human) (UniProt Q2TAZ0); experiment: as above
[3] = target: HA‐tagged ATG2A‐mLIR (FCIL/AAAA) (human) (UniProt Q2TAZ0); experiment: as above
[4] = target: GFP‐tagged endogenous ATG2A (CRISPR/Cas9 knock‐in) (human (endogenous in U2OS)) (UniProt Q2TAZ0); experiment: co-IP; U2OS WT or GFP-ATG2A knock-in cells in complete medium or starved 2 h; lysates on anti-GFP nanobody agarose; blots for endogenous WIPI4, LC3B, GABARAP (pan)
[5] = target: ATG2A, endogenous in HEK293T cells (human (endogenous in HEK293T)) (UniProt Q2TAZ0); experiment: co-IP; GFP alone, GFP-GABARAP or GFP-GABARAP with increasing concentrations of mCherry-WIPI4 expressed in HEK293T for 24 h; GFP-TRAP beads; blots for endogenous ATG2A and ATG2B
[6] = target: ATG2B, endogenous in HEK293T cells (human (endogenous in HEK293T)) (UniProt Q96BY7); experiment: as above
[7] = target: T1, HA‐tagged ATG2A‐WT (human), Q2TAZ0; experiment: co-IP; U2OS ATG2A/B DKO cells stably expressing HA-ATG2A WT, mLIR or mYFS, transfected with GFP-GABARAP, complete medium or starved 2 h (EBSS); anti-HA beads; blots for WIPI4 and GFP; details: remark: other sources report otherwise
T1 chain: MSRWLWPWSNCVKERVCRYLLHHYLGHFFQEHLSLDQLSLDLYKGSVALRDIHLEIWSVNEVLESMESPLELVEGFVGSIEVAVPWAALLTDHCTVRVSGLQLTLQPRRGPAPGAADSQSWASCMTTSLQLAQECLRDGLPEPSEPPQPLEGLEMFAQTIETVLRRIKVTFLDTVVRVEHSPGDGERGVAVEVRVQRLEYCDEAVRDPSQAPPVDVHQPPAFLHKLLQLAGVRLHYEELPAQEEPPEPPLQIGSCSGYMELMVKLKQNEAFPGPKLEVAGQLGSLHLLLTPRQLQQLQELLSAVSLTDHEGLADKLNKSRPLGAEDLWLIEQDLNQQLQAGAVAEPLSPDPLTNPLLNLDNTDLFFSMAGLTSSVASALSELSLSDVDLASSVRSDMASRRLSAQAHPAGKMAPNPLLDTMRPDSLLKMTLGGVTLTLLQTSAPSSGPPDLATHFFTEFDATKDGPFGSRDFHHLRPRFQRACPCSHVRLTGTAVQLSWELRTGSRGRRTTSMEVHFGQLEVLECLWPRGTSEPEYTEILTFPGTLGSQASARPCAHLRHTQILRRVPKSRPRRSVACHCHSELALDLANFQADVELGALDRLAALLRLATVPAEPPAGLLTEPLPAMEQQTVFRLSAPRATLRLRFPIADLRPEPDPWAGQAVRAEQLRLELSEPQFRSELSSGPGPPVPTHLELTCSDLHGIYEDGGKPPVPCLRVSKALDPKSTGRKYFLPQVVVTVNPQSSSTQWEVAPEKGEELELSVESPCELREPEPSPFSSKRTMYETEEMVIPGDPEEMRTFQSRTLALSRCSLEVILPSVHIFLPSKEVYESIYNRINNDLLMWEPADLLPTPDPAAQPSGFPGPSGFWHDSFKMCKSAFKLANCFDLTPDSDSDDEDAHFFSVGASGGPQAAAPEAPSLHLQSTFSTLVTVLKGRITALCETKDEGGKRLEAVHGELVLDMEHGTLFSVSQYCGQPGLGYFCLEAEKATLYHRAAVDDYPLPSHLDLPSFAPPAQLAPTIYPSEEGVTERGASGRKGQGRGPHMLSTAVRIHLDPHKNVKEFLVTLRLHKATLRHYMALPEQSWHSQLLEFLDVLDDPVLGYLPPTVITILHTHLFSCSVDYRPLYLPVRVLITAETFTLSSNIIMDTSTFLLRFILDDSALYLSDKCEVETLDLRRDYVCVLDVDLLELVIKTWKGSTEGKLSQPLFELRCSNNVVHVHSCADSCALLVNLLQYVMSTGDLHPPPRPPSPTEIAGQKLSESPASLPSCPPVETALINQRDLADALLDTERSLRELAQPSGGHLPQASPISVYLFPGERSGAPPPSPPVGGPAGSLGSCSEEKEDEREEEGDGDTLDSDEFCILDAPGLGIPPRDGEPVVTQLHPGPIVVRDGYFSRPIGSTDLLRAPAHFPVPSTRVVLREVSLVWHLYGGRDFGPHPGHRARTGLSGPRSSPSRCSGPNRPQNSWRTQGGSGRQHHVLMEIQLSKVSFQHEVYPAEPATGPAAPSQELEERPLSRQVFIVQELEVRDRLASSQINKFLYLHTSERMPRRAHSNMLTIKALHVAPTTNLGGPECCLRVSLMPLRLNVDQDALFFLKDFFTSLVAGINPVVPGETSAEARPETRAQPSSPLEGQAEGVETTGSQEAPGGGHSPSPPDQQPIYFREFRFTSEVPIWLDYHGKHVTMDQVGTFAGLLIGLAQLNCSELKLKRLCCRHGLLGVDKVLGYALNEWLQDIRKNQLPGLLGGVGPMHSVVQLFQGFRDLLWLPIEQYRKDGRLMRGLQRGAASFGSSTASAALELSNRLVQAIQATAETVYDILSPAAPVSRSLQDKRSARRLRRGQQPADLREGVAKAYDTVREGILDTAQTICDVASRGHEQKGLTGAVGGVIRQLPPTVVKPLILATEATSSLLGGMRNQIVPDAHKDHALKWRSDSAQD

binding [1]: binds | binding [2]: no binding | binding [3]: binds | binding [4]: binds
B1: WIPI4 (WDR45), endogenous in U2OS cells (protein, UniProt Q9Y484 1-360)
chain: MTQQPLRGVTSLRFNQDQSCFCCAMETGVRIYNVEPLMEKGHLDHEQVGSMGLVEMLHRSNLLALVGGGSSPKFSEISVLIWDDAREGKDSKEKLVLEFTFTKPVLSVRMRHDKIVIVLKNRIYVYSFPDNPRKLFEFDTRDNPKGLCDLCPSLEKQLLVFPGHKCGSLQLVDLASTKPGTSSAPFTINAHQSDIACVSLNQPGTVVASASQKGTLIRLFDTQSKEKLVELRRGTDPATLYCINFSHDSSFLCASSDKGTVHIFALKDTRLNRRSALARVGKVGPMIGQYVDSQWSLASFTVPAESACICAFGRNTSKNVNSVIAICVDGTFHKYVFTPDGNCNREAFDVYLDICDDDDF

binding [5]: binds | binding [6]: binds
B2: mCherry‐tagged WIPI4 (WDR45) (protein, UniProt Q9Y484 1-360)
chain: B1 chain

binding [7]: binds
B3: GFP‐tagged GABARAP (in U2OS ATG2A/B double‐knockout cells), O95166 1-117 (protein)
chain: MKFVYKEEHPFEKRRSEGEKIRKKYPDRVPVIVEKAPKARIGDLDKKKYLVPSDLTVGQFYFLIRKRIHLRAEDALFFFVNNVIPPTSATMGQLYQEHHEEDFFLYIAYSDESVYGL
